Molecular target: S0 spike (and furin)+)

B1: 6.30-FuG1: spike-RBD targeting antibody 6.30 converted into FuG1; SEQ ID NOs: 20 and 27 (protein)
light: DIQMTQSPSSLSASVGDRVTITCRASQNISSYLNWYQQEAGKAPKLLIYAASSLQSGVPSRFSGSGSGTDFTLTISSLQPEDFATYYCQQSYSTPRTFGQGTKVDIKRTVAAPSVFIFPPSDEQLKSGTASVVCLLNNFYPREAKVQWKVDNALQSGNSQESVTEQDSKDSTYSLSSTLTLSKADYEKHKVYACEVTHQGLSSPVTKSFNRGEC
heavy: QVQLVQSGAEVKKPGSSVKVSCKASGGTFSIYAITWVRQAPGQGLEWMGGIIPIIGTANYAQKFQGRVTITADKSTSTAYMELSSLRSEDTAVYYCARDFRYCSSTRCYFWFDPWGQGTLVTVSSASTKGPSVFPLAPSSKSTSGGTAALGCLVKDYFPEPVTVSWNSGALTSGVHTFPAVLQSSGLYSLSSVVTVPSSSLGTQTYICNVNHKPSNTKVDKKVEPKSCDKTHTCPPCPAPEAAGGPSVFLFPPKPKDTLMISRTPEVTCVVVDVSHEDPEVKFNWYVDGVEVHNAKTKPREEQYNSTYRVVSVLTVLHQDWLNGKEYKCKVSNKALPAPIEKTISKAKGQPREPQVYTLPPSREEMTKNQVSLTCLVKGFYPSDIAVEWESNGQPENNYKTTPPVLDSDGSFFLYSKLTVDKSRWQQGNVFSCSVMHEALHNHYTQKSLSLSLGKEGGGSGRERKARGGCPGS
- pull-down of S0 spike and furin: pull-down detectable S0 spike (and furin) selectively from spike transfected HEK-293 cells

Reference: patent US20250179151A1, “SPIKE FURIN CLEAVAGE IS A SARS-COV-2 TARGETING STRATEGY TO BREAK THE CHAIN OF INFECTION CYCLE” (University of Virginia Patent Foundation, priority 2022, published 2025)
